Among all 310,000 compounds or so, about 2,200 (0.71%) showed an effect of 50% or more. Effects have a minus sign here. This is one part of the list.

The target in this assay is human ether-à-go-go-related gene (hERG) potassium channel (human, UniProt Q12809). Kind of assay: primary screen, population patch clamp on CHO cells stably expressing hERG.
Sequence of human ether-à-go-go-related gene (hERG) potassium channel (Q12809 whole entry, looked up): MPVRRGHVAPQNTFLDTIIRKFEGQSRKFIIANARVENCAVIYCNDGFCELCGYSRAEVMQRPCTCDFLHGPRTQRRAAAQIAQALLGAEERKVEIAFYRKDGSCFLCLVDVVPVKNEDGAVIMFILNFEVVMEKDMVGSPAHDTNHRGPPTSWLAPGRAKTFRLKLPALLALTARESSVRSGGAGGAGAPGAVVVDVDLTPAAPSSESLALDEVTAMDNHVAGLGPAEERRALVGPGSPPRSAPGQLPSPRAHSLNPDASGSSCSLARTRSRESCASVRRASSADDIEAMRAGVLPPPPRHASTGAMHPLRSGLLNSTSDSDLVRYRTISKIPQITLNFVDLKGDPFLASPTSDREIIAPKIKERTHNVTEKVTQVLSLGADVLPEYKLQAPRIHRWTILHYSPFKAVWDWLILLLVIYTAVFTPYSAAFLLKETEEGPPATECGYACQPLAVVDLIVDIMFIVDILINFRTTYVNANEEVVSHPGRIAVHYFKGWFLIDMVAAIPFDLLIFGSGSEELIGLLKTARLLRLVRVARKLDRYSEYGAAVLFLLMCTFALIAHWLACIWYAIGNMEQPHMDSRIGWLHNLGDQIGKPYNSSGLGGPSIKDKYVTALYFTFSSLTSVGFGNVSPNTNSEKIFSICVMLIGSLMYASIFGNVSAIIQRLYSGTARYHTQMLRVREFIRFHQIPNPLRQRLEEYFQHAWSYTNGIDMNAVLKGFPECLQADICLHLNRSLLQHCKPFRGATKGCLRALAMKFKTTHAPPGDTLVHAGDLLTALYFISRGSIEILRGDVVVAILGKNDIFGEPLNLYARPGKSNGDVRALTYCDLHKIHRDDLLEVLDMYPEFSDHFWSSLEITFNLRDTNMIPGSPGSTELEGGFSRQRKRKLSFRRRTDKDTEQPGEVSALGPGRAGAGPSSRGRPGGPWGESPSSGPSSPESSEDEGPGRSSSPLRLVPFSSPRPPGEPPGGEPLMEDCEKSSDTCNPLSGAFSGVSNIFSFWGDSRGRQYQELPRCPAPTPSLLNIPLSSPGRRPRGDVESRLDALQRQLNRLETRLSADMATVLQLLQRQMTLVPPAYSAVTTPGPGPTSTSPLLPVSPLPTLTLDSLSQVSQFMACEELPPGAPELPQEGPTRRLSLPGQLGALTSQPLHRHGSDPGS
As to `O=C(O)c1c2c(nc3ccc(S(=O)(=O)N4CCC(C(=O)N5CCCCC5)CC4)cc13)CCCC2`, the “hERG current change (%, negative = inhibition) at 1uM” value stood at 0.42%.
To `O=C(NN1C(=O)C2C3C=CC(O3)C2C1=O)c1ccccc1` (centres unmarked) belongs 6.38%; to `CCOC(=O)Cc1ncccc1C(=O)Nc1ccc(OC)cc1`, 14%.
For the compound `O=C(NCc1ccccc1)C1=C[C@H](C2CC2)C[C@H](OCCCCO)O1`, the “hERG current change (%, negative = inhibition) at 1uM” value came to 4.22%.
As to `N#Cc1cccc(-n2c(-c3ccccc3)nnc2-c2ccccc2)c1C#N`, the “hERG current change (%, negative = inhibition) at 1uM” value is listed as -6.06%.
The same measure for `COc1ccc(CNC(=O)N2CCN(S(=O)(=O)c3ccccc3F)CC2)cc1`: 15%; for `Cc1ccc(S(=O)(=O)NCCNc2ccc([N+](=O)[O-])cc2)cc1`: 3.05%; for `COc1ccc(C(=O)N[C@H](C(=O)OCc2cc(=O)oc3cc(C)ccc23)C(C)C)cc1`: -11.2%.
To `CSc1cccc(NC(C)=O)c1` belongs 6.65%; to `CC(=O)Nc1ccc(S(=O)(=O)N(Cc2ccccc2)C(C)C)cc1`, 2.91%.
For `COc1ccc(S(=O)(=O)N2CCOC2CNC(=O)C(=O)NCCc2c[nH]c3ccccc23)cc1C` (centres unmarked), the “hERG current change (%, negative = inhibition) at 1uM” value was determined as 5.98%.
For `CC(=O)c1nn(-c2ccccc2)cc1C(=O)c1cccc(Br)c1`, the “hERG current change (%, negative = inhibition) at 1uM” value was 8.59%.
In the case of `COc1ccc2c(c1)C1OCCC1C(c1ccco1)N2` (centres unmarked), the “hERG current change (%, negative = inhibition) at 1uM” value was determined as 5.93%.
With `Cc1[nH]nc2nc(SCC(=O)NCC3CCCO3)n(-c3ccc(Br)cc3)c(=N)c12` (centres unmarked), the “hERG current change (%, negative = inhibition) at 1uM” value came to 4.63%.
For `COc1ccc(OC)c(CN2CCN(C(=O)Cc3ccccc3)CC2)c1.O=C(O)C(=O)O`, the “hERG current change (%, negative = inhibition) at 1uM” value was found to be 17.6%.
As to `COCCOC(=O)C1=C(C)Nc2ncnn2C1c1ccco1` (centres unmarked), the “hERG current change (%, negative = inhibition) at 1uM” value came out at 6.75%.
Regarding `COc1cc(C(=O)NCC(c2cccs2)N2CCOCC2)cc(OC)c1OC` (centres unmarked), the “hERG current change (%, negative = inhibition) at 1uM” value worked out at 6.68%.
For `COc1ccc2c(c1)c1c(n2C(C)=O)C(OC(C)=O)=NCC1`, the “hERG current change (%, negative = inhibition) at 1uM” value worked out at 2.42%.
`Cc1cc([N+](=O)[O-])ccc1NCc1cccc2ccccc12`: the “hERG current change (%, negative = inhibition) at 1uM” value worked out at 14.6%.
On to `Cc1ccc(NC(=O)C(=O)NN=C2CCCC2)cc1C`, for which the “hERG current change (%, negative = inhibition) at 1uM” value came to 27.2%.
As to `O=C(CN1C(=O)NC(c2ccccc2)(c2ccccc2)C1=O)N1CCN(c2ccccc2F)CC1`, the “hERG current change (%, negative = inhibition) at 1uM” value worked out at 5.83%.
For the compound `Cc1cccc(CN2CCc3c(OCC(=O)NCc4ccco4)cccc3C2=O)c1`, the “hERG current change (%, negative = inhibition) at 1uM” value was -8.38%.
In the case of `Cc1nc(NC(=S)NC(=O)c2ccccc2)sc1C(=O)N(C)C`, the “hERG current change (%, negative = inhibition) at 1uM” value was 0.13%.
For the compound `O=C(OC1CO[C@H]2O[C@@H]1[C@H](OC(=O)c1ccccc1)[C@H]2OC(=O)c1ccccc1)c1ccccc1` (some centres unmarked), the “hERG current change (%, negative = inhibition) at 1uM” value came to 12.2%.
To `COCCn1c(SCC(=O)N2CCCc3ccccc32)nnc1-c1ccoc1C` belongs -2.64%.
With `CCc1cccc(NC2c3ccccc3C(=O)N2c2ccc(C)cn2)c1` (centres unmarked), the “hERG current change (%, negative = inhibition) at 1uM” value was found to be 7.48%.
The same measure for `CCCCN(CC)CCNC(=O)Cn1cnc2sc(C)c(S(=O)(=O)N3CCC(C)CC3)c2c1=O`: 10.5%; for `Cc1cc(=O)c2cc(NC(=O)c3ccccc3Cl)ccc2[nH]1`: 14.4%; for `Cc1n[nH]c(C)c1S(=O)(=O)N1CCCC(C(=O)N2CCc3ccccc32)C1` (centres unmarked): 4.86%.
With `CN(C)c1ccc2c(c1)Sc1cc(N(C)C)ccc1N2C(=O)c1ccccc1`, the “hERG current change (%, negative = inhibition) at 1uM” value was 6.64%.
Consider `CCOC(=O)c1ccc(NC(=O)CCNS(=O)(=O)c2cccs2)cc1`, for which the “hERG current change (%, negative = inhibition) at 1uM” value worked out at 15.4%.
Turning to `NC(=O)NCCc1ccccc1`, the “hERG current change (%, negative = inhibition) at 1uM” value came to 4.61%.
Consider `CCOc1ccccc1NC(=O)CCS(=O)(=O)c1ccc(Br)cc1`, for which the “hERG current change (%, negative = inhibition) at 1uM” value worked out at 6%.
For `O=[N+]([O-])c1ccc(C2CNC(c3ccccc3)O2)cc1` (centres unmarked), the “hERG current change (%, negative = inhibition) at 1uM” value is recorded as 14.5%.
The same measure for `Cn1c(=O)c(-c2ccccc2)nc2ccccc21`: 6.33%; for `O=C(Cc1ccc(Cl)cc1)NCc1ccccc1Cl`: 12.8%; for `CCCOc1ccc(-c2nc(N)n[nH]2)cc1`: -4.68%.
Turning to `Cc1nn2c(c1-c1ccccc1)NC1=C(C(=O)CCC1)C2c1ccccc1` (centres unmarked), the “hERG current change (%, negative = inhibition) at 1uM” value is recorded as -5.57%.
On to `c1ccc(CCc2cc3ccccc3[nH]2)cc1`, for which the “hERG current change (%, negative = inhibition) at 1uM” value is listed as 8.75%.
For `Cc1ccc(SCC(=O)OCC(=O)N(CCC#N)c2ccccc2)cc1`, the “hERG current change (%, negative = inhibition) at 1uM” value is on record as 14.2%.
Turning to `Cc1ccc(NC(=O)CSc2ncnc3ccccc23)cc1S(=O)(=O)N1CCCCCC1`, the “hERG current change (%, negative = inhibition) at 1uM” value stood at 11%.
As to `CCOc1ncccc1C(=O)Nc1cc(S(=O)(=O)N2CCCCC2)ccc1OC`, the “hERG current change (%, negative = inhibition) at 1uM” value was determined as 4.79%.
Consider `O=C1C2CCCN2C(c2cccnc2)N1c1cccc(Cl)c1` (centres unmarked), for which the “hERG current change (%, negative = inhibition) at 1uM” value is reported as 1.06%.
The same measure for `COc1ccc(C)c2sc(N3CCCC3)nc12`: -12%.
